# Laboratory results from the supplement of paper PMC8728848.
# This is one part of the list.
# B1: STA (Solanum tuberosum) (protein)
# chain: NASAPLPYPQCGLKKGGGKCIKTGECCSIWGWCGTTSDYCAPGYCQKQCPGPYPQGRCGWQANGKSCPTGTGQCCSNAGWCGTTSDYCAPNNCQSQCKLPPPPPSPPPPPPSPPPPSPPPPPPSPPPPSPSPPPPPPSPPPPSPPPPSPPPPSPPPPPSPSPPPPPPSPPPPPPPLPYPQCGMKKGGGKCIKTGECCSIWGWCGTTSKYCSPGYCQMQCPDPYPEGRCGWQANGKSCPTGTGQCCSNAGWCGTTSAYCAPVNCQAQCNTTTLTSPIKNRMRGIESFMLNVV
# Tests used:
# Assay in all cases: glycan array binding signal (z-score within array); higher = stronger binding
# Conditions in all cases: glycan notation: IUPAC condensed, linker removed
# [1] = molecular target: Neu5Ac(a2-3)Gal(b1-4)GlcNAc(b1-3)Gal(b1-4)[Fuc(a1-3)]GlcNAc
# How it was run: (§1)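 Columns mapping to the same glycan were averaged after glycan names were converted to IUPAC-condensed notation. The data come from 3228 arrays in the Consortium for Functional Glycomics database, limited to those with an available protein sequence. Binding is reported as a within-array Z-score averaged across arrays of one protein sequence and across linkers.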
# [2] = molecular target: Neu5Ac(a2-3)Gal(b1-4)GlcNAc(b1-6)[Gal(b1-3)]GalNAc
# How it was run: as §1
# [3] = molecular target: Neu5Ac(a2-3)Gal(b1-4)GlcNAc6S
# How it was run: as §1
# [4] = molecular target: Neu5Ac(a2-3)Gal(b1-4)[Fuc(a1-3)]GlcNAc
# How it was run: as §1
# [5] = molecular target: Neu5Ac(a2-3)Gal(b1-4)[Fuc(a1-3)]GlcNAc(b1-3)Gal
# How it was run: as §1
# [6] = molecular target: Neu5Ac(a2-3)Gal(b1-4)[Fuc(a1-3)]GlcNAc(b1-3)Gal(b1-4)GlcNAc
# How it was run: as §1
# [7] = molecular target: Neu5Ac(a2-3)Gal(b1-4)[Fuc(a1-3)]GlcNAc(b1-3)Gal(b1-4)[Fuc(a1-3)]GlcNAc(b1-3)Gal(b1-4)[Fuc(a1-3)]GlcNAc
# How it was run: as §1
# [8] = molecular target: Neu5Ac(a2-3)Gal(b1-4)[Fuc(a1-3)]GlcNAc6S
# How it was run: as §1
# [9] = molecular target: Neu5Ac(a2-3)Gal6S(b1-4)GlcNAc
# How it was run: as §1
# [10] = molecular target: Neu5Ac(a2-3)Gal6S(b1-4)[Fuc(a1-3)]GlcNAc
# How it was run: as §1
# Neu5Ac(a2-3)GalNAc = molecular target: Neu5Ac(a2-3)GalNAc
# How it was run: as §1
# [11] = molecular target: Neu5Ac(a2-3)GalNAc(b1-4)GlcNAc
# How it was run: as §1
# [12] = molecular target: Neu5Ac(a2-3)[GalNAc(b1-4)]Gal(b1-4)Glc
# How it was run: as §1
# [13] = molecular target: Neu5Ac(a2-3)[GalNAc(b1-4)]Gal(b1-4)GlcNAc
# How it was run: as §1
# [14] = molecular target: Neu5Ac(a2-3)[Neu5Ac(a2-6)]GalNAc
# How it was run: as §1
# [15] = molecular target: Neu5Ac(a2-6)Gal(b1-4)GlcNAc
# How it was run: as §1
# [16] = molecular target: Neu5Ac(a2-6)Gal(b1-4)GlcNAc(b1-2)Man(a1-3)[Neu5Ac(a2-6)Gal(b1-4)GlcNAc(b1-2)Man(a1-6)]Man(b1-4)GlcNAc(b1-4)GlcNAc
# How it was run: as §1
# [17] = molecular target: Neu5Ac(a2-6)Gal(b1-4)GlcNAc(b1-3)Gal(b1-4)GlcNAc
# How it was run: as §1
# [18] = molecular target: Neu5Ac(a2-6)Gal(b1-4)GlcNAc(b1-3)Gal(b1-4)[Fuc(a1-3)]GlcNAc(b1-3)Gal(b1-4)[Fuc(a1-3)]GlcNAc
# How it was run: as §1
# [19] = molecular target: Neu5Ac(a2-6)Gal(b1-4)GlcNAc6S
# How it was run: as §1
# Neu5Ac(a2-6)GalNAc = molecular target: Neu5Ac(a2-6)GalNAc
# How it was run: as §1
# [20] = molecular target: Neu5Ac(a2-6)GalNAc(b1-4)GlcNAc
# How it was run: as §1
# Neu5Ac(a2-8)Neu5Ac = molecular target: Neu5Ac(a2-8)Neu5Ac
# How it was run: as §1
# [21] = molecular target: Neu5Ac(a2-8)Neu5Ac(a2-3)Gal(b1-4)Glc
# How it was run: as §1
# [22] = molecular target: Neu5Ac(a2-8)Neu5Ac(a2-3)[GalNAc(b1-4)]Gal(b1-4)Glc
# How it was run: as §1
# [23] = molecular target: Neu5Ac(a2-8)Neu5Ac(a2-8)Neu5Ac
# How it was run: as §1
# [24] = molecular target: Neu5Ac(a2-8)Neu5Ac(a2-8)Neu5Ac(a2-3)Gal(b1-4)Glc
# How it was run: as §1
# [25] = molecular target: Neu5Ac(a2-8)Neu5Ac(a2-8)Neu5Ac(a2-3)[GalNAc(b1-4)]Gal(b1-4)Glc
# How it was run: as §1
# [26] = molecular target: Neu5Ac(a2-8)Neu5Ac(a2-8)Neu5Ac(a2-8)Neu5Ac(a2-3)[GalNAc(b1-4)]Gal(b1-4)Glc
# How it was run: as §1
# [27] = molecular target: Neu5Ac9Ac(a2-6)Gal(b1-4)GlcNAc
# How it was run: as §1
# [28] = molecular target: Neu5Gc(a2-3)Gal(b1-3)GlcNAc
# How it was run: as §1
# [29] = molecular target: Neu5Gc(a2-3)Gal(b1-3)[Fuc(a1-4)]GlcNAc
# How it was run: as §1
# Neu5Gc(a2-3)Gal(b1-4)Glc = molecular target: Neu5Gc(a2-3)Gal(b1-4)Glc
# How it was run: as §1
# [30] = molecular target: Neu5Gc(a2-3)Gal(b1-4)GlcNAc
# How it was run: as §1
# [31] = molecular target: Neu5Gc(a2-3)Gal(b1-4)[Fuc(a1-4)]GlcNAc
# How it was run: as §1
# [32] = molecular target: Neu5Gc(a2-6)Gal(b1-4)GlcNAc
# How it was run: as §1
# Neu5Gc(a2-6)GalNAc = molecular target: Neu5Gc(a2-6)GalNAc
# How it was run: as §1
binder,measurement,setting,value
B1,glycan array binding signal (z-score),[1],-0.507
same,glycan array binding signal (z-score),[2],-0.504
same,glycan array binding signal (z-score),[3],3.23
same,glycan array binding signal (z-score),[4],-0.503
same,glycan array binding signal (z-score),[5],-0.509
same,glycan array binding signal (z-score),[6],-0.144
same,glycan array binding signal (z-score),[7],-0.505
same,glycan array binding signal (z-score),[8],-0.49
same,glycan array binding signal (z-score),[9],-0.493
same,glycan array binding signal (z-score),[10],-0.495
same,glycan array binding signal (z-score),Neu5Ac(a2-3)GalNAc,-0.505
same,glycan array binding signal (z-score),[11],1.35
same,glycan array binding signal (z-score),[12],-0.51
same,glycan array binding signal (z-score),[13],0.037
same,glycan array binding signal (z-score),[14],-0.506
same,glycan array binding signal (z-score),[15],-0.502
same,glycan array binding signal (z-score),[16],-0.5
same,glycan array binding signal (z-score),[17],0.912
same,glycan array binding signal (z-score),[18],-0.514
same,glycan array binding signal (z-score),[19],-0.498
same,glycan array binding signal (z-score),Neu5Ac(a2-6)GalNAc,-0.494
same,glycan array binding signal (z-score),[20],2.46
same,glycan array binding signal (z-score),Neu5Ac(a2-8)Neu5Ac,-0.505
same,glycan array binding signal (z-score),[21],-0.496
same,glycan array binding signal (z-score),[22],-0.506
same,glycan array binding signal (z-score),[23],-0.508
same,glycan array binding signal (z-score),[24],-0.5
same,glycan array binding signal (z-score),[25],-0.512
same,glycan array binding signal (z-score),[26],-0.501
same,glycan array binding signal (z-score),[27],-0.498
same,glycan array binding signal (z-score),[28],-0.508
same,glycan array binding signal (z-score),[29],-0.511
same,glycan array binding signal (z-score),Neu5Gc(a2-3)Gal(b1-4)Glc,-0.507
same,glycan array binding signal (z-score),[30],1.47
same,glycan array binding signal (z-score),[31],-0.501
same,glycan array binding signal (z-score),[32],-0.508
same,glycan array binding signal (z-score),Neu5Gc(a2-6)GalNAc,-0.514
